Results as given in the supplement of paper PMC8728848.
The list shows a part of the results.

How the values were obtained:
Assay in all cases: glycan array binding signal (z-score within array); higher = stronger binding
Details in all cases: glycan notation: IUPAC condensed, linker removed
[1] = target: Fuc(a1-2)[Gal(a1-3)]Gal(b1-4)GlcNAc(b1-2)Man(a1-3)[Fuc(a1-2)[Gal(a1-3)]Gal(b1-4)GlcNAc(b1-2)Man(a1-6)]Man(b1-4)GlcNAc(b1-4)[Fuc(a1-6)]GlcNAc
How it was run: (§1)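 Glycan array data came from 3228 arrays in the Consortium for Functional Glycomics database, and only arrays with an available protein sequence were kept. Glycan names were put into IUPAC-condensed notation, and columns mapping to the same glycan were averaged. The binding signal is a within-array Z-score, averaged across arrays of one protein sequence run at different concentrations or buffers and across linkers. A negative Z-score can be read as non-binding.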

[2] = target: Fuc(a1-2)[Gal(a1-3)]Gal(b1-4)GlcNAc(b1-3)GalNAc
How it was run: as §1

[3] = target: Fuc(a1-2)[Gal(a1-3)]Gal(b1-4)GlcNAc(b1-3)[Fuc(a1-2)[Gal(a1-3)]Gal(b1-4)GlcNAc(b1-6)]GalNAc
How it was run: as §1

[4] = target: Fuc(a1-2)[Gal(a1-3)]Gal(b1-4)GlcNAc(b1-6)GalNAc
How it was run: as §1

[5] = target: Fuc(a1-2)[Gal(a1-3)]Gal(b1-4)[Fuc(a1-3)]Glc
How it was run: as §1

[6] = target: Fuc(a1-2)[Gal(a1-3)]Gal(b1-4)[Fuc(a1-3)]GlcNAc
How it was run: as §1

[7] = target: Fuc(a1-2)[Gal(a1-3)]Gal(b1-4)[Fuc(a1-3)]GlcNAc(b1-3)GalNAc
How it was run: as §1

[8] = target: Fuc(a1-2)[Gal(a1-4)]Gal(b1-4)GlcNAc
How it was run: as §1

[9] = target: Fuc(a1-2)[GalNAc(a1-3)]Gal
How it was run: as §1

[10] = target: Fuc(a1-2)[GalNAc(a1-3)]Gal(b1-3)GalNAc(a1-3)[Fuc(a1-2)]Gal(b1-4)GlcNAc
How it was run: as §1

[11] = target: Fuc(a1-2)[GalNAc(a1-3)]Gal(b1-3)GalNAc(b1-3)Gal(a1-4)Gal(b1-4)Glc
How it was run: as §1

[12] = target: Fuc(a1-2)[GalNAc(a1-3)]Gal(b1-3)GlcNAc
How it was run: as §1

[13] = target: Fuc(a1-2)[GalNAc(a1-3)]Gal(b1-3)GlcNAc(b1-2)Man(a1-3)[Fuc(a1-2)[GalNAc(a1-3)]Gal(b1-3)GlcNAc(b1-2)Man(a1-6)]Man(b1-4)GlcNAc(b1-4)GlcNAc
How it was run: as §1

[14] = target: Fuc(a1-2)[GalNAc(a1-3)]Gal(b1-3)GlcNAc(b1-2)Man(a1-3)[Fuc(a1-2)[GalNAc(a1-3)]Gal(b1-3)GlcNAc(b1-2)Man(a1-6)]Man(b1-4)GlcNAc(b1-4)[Fuc(a1-6)]GlcNAc
How it was run: as §1

[15] = target: Fuc(a1-2)[GalNAc(a1-3)]Gal(b1-3)GlcNAc(b1-3)GalNAc
How it was run: as §1

[16] = target: Fuc(a1-2)[GalNAc(a1-3)]Gal(b1-3)GlcNAc(b1-6)GalNAc
How it was run: as §1

[17] = target: Fuc(a1-2)[GalNAc(a1-3)]Gal(b1-4)Glc
How it was run: as §1

[18] = target: Fuc(a1-2)[GalNAc(a1-3)]Gal(b1-4)GlcNAc
How it was run: as §1

[19] = target: Fuc(a1-2)[GalNAc(a1-3)]Gal(b1-4)GlcNAc(b1-2)Man
How it was run: as §1

[20] = target: Fuc(a1-2)[GalNAc(a1-3)]Gal(b1-4)GlcNAc(b1-2)Man(a1-3)[Fuc(a1-2)[GalNAc(a1-3)]Gal(b1-4)GlcNAc(b1-2)Man(a1-6)]Man(b1-4)GlcNAc(b1-4)GlcNAc
How it was run: as §1

[21] = target: Fuc(a1-2)[GalNAc(a1-3)]Gal(b1-4)GlcNAc(b1-2)Man(a1-3)[Fuc(a1-2)[GalNAc(a1-3)]Gal(b1-4)GlcNAc(b1-2)Man(a1-6)]Man(b1-4)GlcNAc(b1-4)[Fuc(a1-6)]GlcNAc
How it was run: as §1

[22] = target: Fuc(a1-2)[GalNAc(a1-3)]Gal(b1-4)GlcNAc(b1-3)Gal(b1-4)GlcNAc
How it was run: as §1

[23] = target: Fuc(a1-2)[GalNAc(a1-3)]Gal(b1-4)GlcNAc(b1-3)Gal(b1-4)GlcNAc(b1-3)Gal(b1-4)GlcNAc
How it was run: as §1

[24] = target: Fuc(a1-2)[GalNAc(a1-3)]Gal(b1-4)GlcNAc(b1-3)GalNAc
How it was run: as §1

[25] = target: Fuc(a1-2)[GalNAc(a1-3)]Gal(b1-4)GlcNAc(b1-3)[Fuc(a1-2)[GalNAc(a1-3)]Gal(b1-4)GlcNAc(b1-6)]GalNAc
How it was run: as §1

[26] = target: Fuc(a1-2)[GalNAc(a1-3)]Gal(b1-4)GlcNAc(b1-6)GalNAc
How it was run: as §1

[27] = target: Fuc(a1-2)[GalNAc(a1-3)]Gal(b1-4)[Fuc(a1-3)]GlcNAc
How it was run: as §1

[28] = target: Fuc(a1-2)[GalNAc(a1-3)]Gal(b1-4)[Fuc(a1-3)]GlcNAc(b1-3)GalNAc
How it was run: as §1

[29] = target: Fuc(a1-2)[GalNAc(a1-4)]Gal(b1-4)GlcNAc
How it was run: as §1

[30] = target: Fuc(a1-2)[GalNAc(b1-3)]Gal
How it was run: as §1

Fuc(a1-3)GlcNAc = target: Fuc(a1-3)GlcNAc
How it was run: as §1

[31] = target: Fuc(a1-3)[Gal(b1-4)]Glc6S
How it was run: as §1

[32] = target: Fuc(a1-3)[Gal(b1-4)]GlcNAc
How it was run: as §1

[33] = target: Fuc(a1-3)[Gal(b1-4)]GlcNAc(b1-2)Man
How it was run: as §1

[34] = target: Fuc(a1-3)[Gal(b1-4)]GlcNAc(b1-2)Man(a1-3)[Fuc(a1-3)[Gal(b1-4)]GlcNAc(b1-2)Man(a1-6)]Man(b1-4)GlcNAc(b1-4)GlcNAc
How it was run: as §1

[35] = target: Fuc(a1-3)[Gal(b1-4)]GlcNAc(b1-2)Man(a1-3)[Fuc(a1-3)[Gal(b1-4)]GlcNAc(b1-2)Man(a1-6)]Man(b1-4)GlcNAc(b1-4)[Fuc(a1-6)]GlcNAc
How it was run: as §1

[36] = target: Fuc(a1-3)[Gal(b1-4)]GlcNAc(b1-3)Gal(b1-3)[Fuc(a1-4)]GlcNAc
How it was run: as §1

B1: GS13686A-pdi-553-26-553 (Parabacteroides distasonis) (protein)
chain: NENPDKPTDDVNYNMNEPRLASTLRGGLIIEGNVEQRLKPLQIDFYSQMTVDGGGWGTKNYIQDDEWNNLVWEEYLKQIASINIVIRSLTEKDKDAYANTIAFARIWRVYVHTLAADKFGPMPFPAYEIVEANPPYKSLKDIYDEYFRELDAAINGFNDSAQPIFSDAGIDLIYKNDVSKWKRFANSLRLRLAVRLTEVDQEKCIAEANAAISSPAGLISDKADNAYMPPKADGSWGQDYNYTMFQITWSGPICMSKSVEKLVTNIGGVAWPQGVVNQTSGVAVSSVHPEKVDPRAPKIFQPGIENGDWKGLVYGPKAEEANTGIYQSKQCAELGFIIKDGYPYKSRPYDLFLSEEVHFLKAELYARGFIAGDAKSEYEAGVRASFATWGVTSEVDDYLTSTEKNEAGTSARYDDQQGAGNTALEKIITQKYIAGIPDLAQEGWNDKRRLNLPRLDVAVYRDQAVYNNNDKDILKSANFIKRMRYPTKESLINATEYEKGKSMLGGKGDIVSTPLWWDKNSNYCTSSK
Which results are given for B1?
glycan array binding signal (z-score) [1]: -0.233; glycan array binding signal (z-score) [2]: -0.353; glycan array binding signal (z-score) [3]: 0.003; glycan array binding signal (z-score) [4]: 0.081; glycan array binding signal (z-score) [5]: 0.037; glycan array binding signal (z-score) [6]: -0.347; glycan array binding signal (z-score) [7]: 0.174; glycan array binding signal (z-score) [8]: -0.209; glycan array binding signal (z-score) [9]: -0.041; glycan array binding signal (z-score) [10]: 0.035; glycan array binding signal (z-score) [11]: -0.124; glycan array binding signal (z-score) [12]: -0.072; glycan array binding signal (z-score) [13]: -0.366; glycan array binding signal (z-score) [14]: 0.253; glycan array binding signal (z-score) [15]: -0.229; glycan array binding signal (z-score) [16]: -0.199; glycan array binding signal (z-score) [17]: 0.119; glycan array binding signal (z-score) [18]: -0.367; glycan array binding signal (z-score) [19]: -0.355; glycan array binding signal (z-score) [20]: -0.158; glycan array binding signal (z-score) [21]: 0.023; glycan array binding signal (z-score) [22]: 0.224; glycan array binding signal (z-score) [23]: 0.041; glycan array binding signal (z-score) [24]: -0.083; glycan array binding signal (z-score) [25]: -0.165; glycan array binding signal (z-score) [26]: -0.281; glycan array binding signal (z-score) [27]: -0.306; glycan array binding signal (z-score) [28]: 0.287; glycan array binding signal (z-score) [29]: 1.95; glycan array binding signal (z-score) [30]: 0.038; glycan array binding signal (z-score) (Fuc(a1-3)GlcNAc): -0.163; glycan array binding signal (z-score) [31]: -0.011; glycan array binding signal (z-score) [32]: -0.209; glycan array binding signal (z-score) [33]: -0.253; glycan array binding signal (z-score) [34]: -0.145; glycan array binding signal (z-score) [35]: 0.404; glycan array binding signal (z-score) [36]: -0.178
